Source: PubChem BioAssay AID1508642 (National Center for Advancing Translational Sciences (NCATS), 2021)
About 200 (0.47%) of roughly 43,000 compounds were called active. About 12% were inconclusive and are not listed. The call rests on the fitted dose curve; in most records, active means well fitted cell-killing curve with a large enough effect; inconclusive means small, poorly fitted or top-dose-only effect, or effect the other way; inactive means flat fitted curve, though single readings scatter. This is one part of the list.

Assay: Cell viability qHTS assay in S16 Pmp22-F2sN cells; further: nearly all actives have a fitted effect of over 65% in size
Settings: S16 Pmp22-F2sN Schwann cells (luciferase reporters placed in the Pmp22 gene) viability, CellTiter-Glo, 24 h; series mostly up to 57.5 µM; activity change, negative = cytotoxicity: at the top concentration
Procedure, shortened: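 Luminescence from CellTiter-Glo, read by CCD camera after a 15 min room-temperature incubation, served as the viability signal. Reporter Schwann cells (S16 Pmp22-F2sN) had been treated with pin-transferred compounds for 24 h at 37C.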
On the % scale 0 is the no-effect control and ±100 the full control effect.

Compound	activity change, negative = cytotoxicity
O=c1oc2ccccc2cc1-c1cn2cc(Cc3cc(Cl)ccc3Cl)sc2n1	inactive: 8.03%
CCC(=O)N1CCc2cc(S(=O)(=O)CCC(=O)N3CCN(c4cccc(C)c4C)CC3)ccc21	inactive: 20.9%
COc1ccc(CC(=O)Nc2nc3c(s2)CCCC3)cc1	inactive: -6.74%
Cc1ccc2c(c1)N(C(=O)CCC(=O)NCc1cccc(F)c1)CC(C)O2 (stereo unspecified)	inactive: -0.566%
Cc1cccc(C)c1NC(=O)c1cc(S(=O)(=O)N2CCc3ccccc3C2)ccc1F	inactive: -16%
CCN(CC)c1ccc2cc(-c3nc4sc5c(c4c(=O)[nH]3)CCC(C(C)(C)C)C5)c(=O)oc2c1 (stereo unspecified)	inactive: 24.5%
COc1cccc(NC(=O)c2c(C)oc3nc(C)nc(N4CCCC4)c23)c1	inactive: 0.266%
CC(=O)c1cccc(NC(=O)c2ccc3nc(Cc4ccccc4)oc3c2)c1	inactive: -2.37%
CCn1c(=O)c2sccc2n2c(CCCC(=O)N3CCN(c4ccc(F)cc4)CC3)nnc12	inactive: -1.34%
CCCCOc1ccc(C(=O)N(Cc2ccccc2)C2CCS(=O)(=O)C2)cc1 (stereo unspecified)	inactive: 8.24%
CCOc1ccc(-c2cc3c(=O)n(CC(=O)NCc4ccc(F)cc4)ccn3n2)cc1	inactive: -5.77%
O=C(c1ccc(Cl)cc1)n1nc(-c2cccnc2)nc1NCc1ccc(F)cc1	inactive: -2.99%
CCOC(=O)c1cccc(NC(=O)CCS(=O)(=O)c2ccc3c(c2)CCN3C(=O)CC)c1	inactive: -6.68%
COc1cccc2cc(-c3nc(-c4ccc(Cl)cc4)cs3)c(=O)oc12	inactive: 3.61%
COc1ccc(-c2c(C)c3ccc(O)c(CN4CCOCC4)c3oc2=O)cc1OC	inactive: 2.58%
COc1cccc(NC(=O)Nc2ccc3c(c2)N(C)C(=O)c2ccccc2S3)c1	inactive: -2.44%
CC1CCN(C(=O)Cn2c(-c3cccs3)cc3cc(Cl)ccc32)CC1	inactive: 18.1%
CCCCOC(=O)c1c(C)oc2c1cc(NS(=O)(=O)c1cc(OC)ccc1OC)c1ccccc12	inactive: 2.59%
CCOc1ccc(-c2nnc(SCC(=O)Nc3cccc(C#N)c3)o2)cc1	inactive: 15.9%
O=C(CN1C(=O)c2ccccc2Sc2ccc(C(=O)N3CCOCC3)cc21)Nc1ccc(Cl)cc1F	inactive: 2.04%
CCCN1Cc2cccc(C(=O)Nc3cc(Cl)ccc3C)c2C1=O	inactive: 10.1%
Cc1cc(C)c2c(c1)c(C)cc1nnc(SCC(=O)c3ccccc3)n12	inactive: 1.69%
Cc1ccc(C)c(NC(=O)C(CC(C)C)N2Cc3ccccc3C2=O)c1 (stereo unspecified)	inactive: -12.7%
O=C(CSc1nccn1Cc1ccc(F)cc1)NCc1ccco1	inactive: 8.31%

Compound	activity change, negative = cytotoxicity
COc1ccccc1CNC(=O)CSc1ncc(S(=O)(=O)c2ccc(C)c(Cl)c2)c(=O)[nH]1	inactive: -3.37%
COc1ccc(-c2nnc(SCC(=O)N3CCC(C)CC3)o2)cc1	inactive: -7.32%
COc1ccc(-c2nnc(C3CCN(S(=O)(=O)c4cccc(Cl)c4)CC3)o2)cc1	inactive: -21.7%
CNC(=O)C1CCC(Cn2c(=O)c3sccc3n(CC(=O)N3CCCC(C)C3)c2=O)CC1 (stereo unspecified)	inactive: -1.13%
COCCCNC(=O)C1CCN(Cc2cc3ccccc3n2Cc2cccc(C)c2)CC1	inactive: -15.9%
COc1ccc(S(=O)(=O)N2Cc3ccccc3CC2C(=O)Nc2ccc(C)cc2)cc1OC (stereo unspecified)	inactive: -0.758%
COc1ccc(CCNC(=O)CCCn2c(=O)c3ccccc3n(Cc3ccccc3)c2=O)cc1OC	inactive: 4.09%
COc1cccc(CNC(=O)C(=O)NCC(c2cccs2)S(=O)(=O)c2ccccc2)c1 (stereo unspecified)	inactive: -16.1%
O=S(=O)(c1ccc(F)cc1)N1CCC(Oc2cccc(C(F)(F)F)c2)CC1	inactive: -10%
COc1c(Cl)cc(Cl)cc1C(=O)Nc1cccc(-c2nc3ccccc3o2)c1C	inactive: 3.07%
CCn1c(COc2ccc(Cl)cc2Cl)nc2ccccc21	inactive: 2.84%
CCc1ccccc1NC(=O)c1cn(C)c(=O)c2ccccc12	inactive: 15.1%
CCOC(=O)CC(NC(=O)Cn1nnc(-c2ccccc2Cl)n1)c1ccc(OC)cc1 (stereo unspecified)	inactive: -24.6%
Cc1ccc(C)c(NC(c2ccccc2)c2nnc(-c3ccccc3F)o2)c1 (stereo unspecified)	inactive: -21.4%
Clc1ccc(CCNc2nc3cc(Cl)c(Cl)cc3n3cnnc23)cc1	inactive: 7.18%
COc1ccc(CCN2C(=O)N(c3cccc(C)c3)C(=O)C2CC(=O)Nc2ccccc2)cc1OC (stereo unspecified)	inactive: -1.6%
Cc1cccc(CCNC(=O)c2cc(S(=O)(=O)N3CCCCC3)c[nH]2)c1	inactive: -14%
Cc1cccc(N2CCN(C(=O)c3ccc4c(c3)N(Cc3ccccc3)C(=O)c3ccccc3S4(=O)=O)CC2C)c1 (stereo unspecified)	inactive: 4.28%
Cc1c2cnn(-c3ccccc3)c(=O)c2c(C)n1C(C)C(=O)Nc1ccccc1C(F)(F)F (stereo unspecified)	inactive: -3.17%
CCCN(CCC)C(=O)Cn1c(=O)n(-c2cccc(C)c2)c(=O)c2c1c1cc(OC)ccc1n2C	inactive: 2.62%
CSc1ccc(-c2nnn(CC(=O)Nc3sc4c(c3C#N)CCC(C(C)(C)C)C4)n2)cc1 (stereo unspecified)	inactive: 12.1%
CCCCOc1ccc(C(C)NC(=O)CN2C(=O)CSc3ccc(S(=O)(=O)N4CCOCC4)cc32)cc1 (stereo unspecified)	inactive: -5.1%
COc1cccc(-c2cc(C(F)(F)F)nc(NCCc3ccc(OC)c(OC)c3)n2)c1	inactive: 21.3%
O=S1(=O)c2ccccc2N(Cc2cccc(F)c2)c2ccccc21	inactive: 3.38%

Compound	activity change, negative = cytotoxicity
COc1ccc(NC(=O)c2ccco2)cc1NC(=O)c1cc(Cl)ccc1OC	inactive: 12.1%
CCC(=O)Nc1ccc(Cl)c(-c2nc3ccccc3[nH]2)c1	inactive: 3.92%
Cc1ccc(-n2ncc3c(N4CCCCCC4)ncnc32)cc1Cl	inactive: 10.7%
Cc1cccc(NC(=O)c2ccc(-n3c(C)nnc3C)cc2)c1	inactive: -12.9%
COc1ccccc1CNC(=O)CCc1c(C)nc2cc(-c3ccc(Cl)cc3)nn2c1C	inactive: -1.84%
Cc1c(C(=O)OC2CCCCC2)[nH]c2c1C(=O)CC(c1ccc(F)cc1)C2 (stereo unspecified)	inactive: 3.46%
COc1ccc(-c2[nH]nc3nc(-c4cc(Br)ccc4OC)cc(C(=O)O)c23)cc1	inactive: 4.75%
O=C(CN1CCCN(Cc2cccc(Cl)c2)S1(=O)=O)Nc1ccc2c(c1)OCCO2	inactive: -1.51%
O=c1c2cc3c(cc2nc2sc(Nc4cccc([N+](=O)[O-])c4)nn12)OCO3	inactive: 4.75%
Cc1ccc(C)c(S(=O)(=O)c2nnn3c2nc(N2CCN(C)CC2)c2sccc23)c1	inactive: -16.4%
CCOC(=O)c1c(NC(=O)c2ccc(OCC)c(Br)c2)sc2c1CCCC2	inactive: -0.203%
Cc1cc2oc(=O)c(CC(=O)NCCc3ccccc3F)c(C)c2c2occ(C(C)(C)C)c12	inactive: -2.41%
CC(=O)Nc1cc(C(=O)NCc2ccc(F)cc2)ccc1Sc1ccc(F)cc1	inactive: 7.71%
COc1ccccc1C(=O)Nc1ccc2nc(SCC(=O)N3CCCc4ccccc43)sc2c1	inactive: -14.7%
COc1ccc(OC)c(NC(=O)C2CCCN(S(=O)(=O)c3ccc4c(c3)CCCC(=O)N4)C2)c1 (stereo unspecified)	inactive: -3.57%
COc1ccccc1NC(=O)C1=C(C)Nc2nc(SC)nn2C1c1ccccc1Cl (stereo unspecified)	inactive: -3.3%
Cc1cccc(CN2CCC(CNC(=O)Cn3ncc4c([nH]c5ccc(C)cc54)c3=O)CC2)c1	inactive: 2.62%
CCOC(=O)c1cc(S(=O)(=O)NCc2ccc(Cl)cc2)[nH]n1	inactive: -0.746%
COc1ccccc1C(=O)N/C(=C\c1cn(S(=O)(=O)N(C)C)c2ccccc12)C(=O)NCCCn1ccnc1	inactive: 22.4%
Cc1ccc(-n2ncc(C(=O)NCc3ccco3)c2C2CCN(C(=O)OC(C)(C)C)CC2)cc1C	inactive: -22.2%
COc1cc(NC(=O)c2cc3cc4ccc(C)cc4nc3o2)cc(OC)c1OC	inactive: 4.43%
O=C(CSc1nc2ccccc2nc1Cc1ccc(Cl)cc1)N1CCN(c2ccccc2)CC1	inactive: 9.39%
Cc1c(C(=O)Nc2cc(F)ccc2F)sc2nc(-c3ccc(F)cc3)cn12	inactive: -7.18%
CCN(CC)S(=O)(=O)c1ccc(C(=O)NCCSc2c(-c3ccccc3)[nH]c3ccccc23)cc1	inactive: -20.6%

Compound	activity change, negative = cytotoxicity
CCCCCCOc1ccc(C2C(=O)N(C3CCCCC3)CC(=O)N2C2CCCCC2)cc1 (stereo unspecified)	inactive: 4.3%
NC(=O)c1cc(S(=O)(=O)N2CCN(c3cccc(C(F)(F)F)c3)CC2)cs1	inactive: -1.66%
O=C(c1ccc2c(c1)N(Cc1ccc(F)cc1)C(=O)c1ccccc1S2(=O)=O)N1CCCCC1	inactive: 0.969%
OCc1cnc(SCc2ccccc2F)n1Cc1ccc(F)cc1	inactive: -13.8%
Cc1cc(C)cc(NC(=O)C(Cc2ccccc2)NS(=O)(=O)c2ccc3c(c2)CCC(=O)N3)c1 (stereo unspecified)	inactive: 8.58%
CCOc1ccccc1NC(=O)C(=O)Nc1ccc2nc3n(c(=O)c2c1)CCCCC3	inactive: 14.7%
Cc1cc(C)c(NC(=O)C2CCCN(S(=O)(=O)c3c(C)noc3C)C2)c(C)c1 (stereo unspecified)	inactive: -0.897%
Cc1cc(C)cc(NC(=O)Cc2noc3ccccc23)c1	inactive: -2.09%
O=C(c1ccccc1)N1c2nc(-c3ccco3)nn2C2(CCCCC2)[C@@H]2CCCC[C@@H]21	inactive: 1.18%
COc1cc(NC(=O)CSc2nc3nc(C)c(Cc4ccccc4Cl)c(C)n3n2)cc(OC)c1	inactive: -2.31%
Cc1ccc(Nc2ncnc3sc4c(c23)CCC(C)C4)cc1C (stereo unspecified)	inactive: -1.83%
Cc1ccc(CNC(=O)C(=O)NCC(c2ccc3c(c2)OCO3)N2CCOCC2)cc1 (stereo unspecified)	inactive: 9.92%
CCOC(=O)C1(C)C=C(Nc2cccc(C(=O)O)c2)C(=O)N1c1ccccc1 (stereo unspecified)	inactive: 1.95%
Cc1ccc2c(=O)cc(C(=O)Nc3c(C)n(C)n(-c4ccccc4)c3=O)oc2c1	inactive: -20.9%
COc1cc2nc(SCc3ccc(C)cc3)n3nc(CCn4nc(C)cc4C)nc3c2cc1OC	inactive: 8.29%
CC(C)Cn1c(-c2cccc(Br)c2)nc2ccccc21	inactive: -15.7%
COC(=O)C(CCSC)Nc1ncnc2onc(-c3ccc(F)cc3)c12 (stereo unspecified)	inactive: 3.9%
CCCOc1ccc(CNC(=O)C(NS(=O)(=O)c2cccs2)C(C)C)cc1 (stereo unspecified)	inactive: -1.52%
COc1cc(Cl)c(C)cc1NC(=O)c1cnc(N2CCCCC2)c2ccccc12	inactive: -25.6%
Cc1ccc(-n2cnnn2)cc1S(N)(=O)=O	inactive: -2.37%
CCc1cc2c(cc3c(=O)n(CC(=O)NCCc4ccc(OC)cc4OC)nc(CC)n32)s1	inactive: 5.19%
COC(=O)Cn1c(SCCOc2ccccc2OC)nc2ccccc21	inactive: 11.4%
Cc1cc2[nH]c(=O)c(=O)[nH]c2cc1S(=O)(=O)N1CCN(c2cccc(Cl)c2)CC1	inactive: 27.5%
COCCNC(=O)c1ccccc1NC(=O)c1nsc2ccccc12	inactive: -2.07%
